About 14,000 (4.5%) of roughly 310,000 compounds showed an effect of 50% or more. Effects have a minus sign here. The list shows a part of the results.
The compounds below were run against human ether-à-go-go-related gene (hERG) potassium channel (human, UniProt Q12809) (assay: primary screen, population patch clamp on CHO cells stably expressing hERG).
Chain of human ether-à-go-go-related gene (hERG) potassium channel (Q12809 whole entry, looked up): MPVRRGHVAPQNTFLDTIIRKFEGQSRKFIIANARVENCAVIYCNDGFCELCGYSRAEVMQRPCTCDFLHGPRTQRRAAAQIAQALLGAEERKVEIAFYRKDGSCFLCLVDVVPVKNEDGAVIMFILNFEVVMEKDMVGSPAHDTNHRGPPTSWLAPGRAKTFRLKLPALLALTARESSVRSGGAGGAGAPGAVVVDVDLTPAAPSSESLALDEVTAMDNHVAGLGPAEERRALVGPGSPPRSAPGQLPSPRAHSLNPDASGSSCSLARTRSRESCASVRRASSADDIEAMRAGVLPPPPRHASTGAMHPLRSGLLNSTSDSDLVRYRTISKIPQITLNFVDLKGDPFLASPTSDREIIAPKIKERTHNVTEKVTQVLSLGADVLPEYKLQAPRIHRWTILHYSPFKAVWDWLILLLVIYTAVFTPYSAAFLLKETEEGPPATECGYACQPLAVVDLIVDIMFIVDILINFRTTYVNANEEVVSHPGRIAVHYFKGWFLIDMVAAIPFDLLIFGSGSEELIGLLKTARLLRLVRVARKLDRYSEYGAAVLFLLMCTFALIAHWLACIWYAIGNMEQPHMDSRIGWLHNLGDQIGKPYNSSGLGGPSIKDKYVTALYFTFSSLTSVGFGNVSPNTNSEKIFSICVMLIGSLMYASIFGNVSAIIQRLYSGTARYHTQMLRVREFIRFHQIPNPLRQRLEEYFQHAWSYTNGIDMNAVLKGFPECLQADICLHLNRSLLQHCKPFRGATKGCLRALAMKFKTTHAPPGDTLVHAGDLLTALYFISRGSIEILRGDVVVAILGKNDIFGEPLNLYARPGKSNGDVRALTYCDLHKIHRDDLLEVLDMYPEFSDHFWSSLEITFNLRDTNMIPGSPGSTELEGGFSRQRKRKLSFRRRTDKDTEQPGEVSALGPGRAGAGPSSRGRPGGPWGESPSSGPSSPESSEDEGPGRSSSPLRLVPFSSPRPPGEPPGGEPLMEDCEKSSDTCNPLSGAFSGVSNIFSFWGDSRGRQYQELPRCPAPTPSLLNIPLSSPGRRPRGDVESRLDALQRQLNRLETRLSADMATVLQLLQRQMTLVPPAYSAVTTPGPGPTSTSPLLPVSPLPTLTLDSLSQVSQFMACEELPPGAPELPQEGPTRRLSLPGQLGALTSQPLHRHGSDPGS
`CCOc1ccc(C(=O)NCC(=O)OCCN2C(=O)c3ccccc3C2=O)cc1OCC` was tested, and the “hERG current change (%, negative = inhibition) at 10uM” value was -11.8%.
With `Cc1ccccc1N1C(=O)C(Cl)=C(N2CCCCCC2)C1=O` the “hERG current change (%, negative = inhibition) at 10uM” value was -13.6%.
For `Cc1ccc2c(=O)cc(C(=O)NCc3ccccc3)oc2c1C`, the “hERG current change (%, negative = inhibition) at 10uM” value was 14.9%.
For `CCCSc1nnc(-c2c[nH]c3ccccc23)n1C`, the “hERG current change (%, negative = inhibition) at 10uM” value was 6.2%.
With `COc1ccc(N/C=C2\CCc3ccccc3C2=O)cc1` the “hERG current change (%, negative = inhibition) at 10uM” value was 0.787%.
In the case of `CCOc1cc(/C=N/NC(=O)c2cc(-c3cccnc3)nc3ccccc23)ccc1O`, the “hERG current change (%, negative = inhibition) at 10uM” value is reported as 36%.
`O=C(O)CCCC(=O)Nc1ccccc1Oc1ccccc1` was tested, and the “hERG current change (%, negative = inhibition) at 10uM” value was 1.31%.
For `O=c1c2ccccc2nc2n1C(CSCc1cccc(C(F)(F)F)c1)CS2` (stereo not shown), the “hERG current change (%, negative = inhibition) at 10uM” value was -23.4%.
`COc1ccccc1NC(=O)COC(=O)C1C2CC3OC(=O)C1C3C2` (stereo not shown) was tested, and the “hERG current change (%, negative = inhibition) at 10uM” value was 5.63%.
In the case of `CCC(C(=O)OC)n1cnc2c(nnn2-c2ccc(C)cc2)c1=O` (stereo not shown), the “hERG current change (%, negative = inhibition) at 10uM” value is reported as -11.8%.
In the case of `CCOC(=O)C1=C(C)N(CC)C(=S)NC1c1ccccc1OC(F)F` (stereo not shown), the “hERG current change (%, negative = inhibition) at 10uM” value is reported as -13.6%.
With `COCCn1nnnc1C(c1ccc(OC)c(OC)c1)N1CCN(c2nc3ccccc3s2)CC1` (stereo not shown) the “hERG current change (%, negative = inhibition) at 10uM” value was -56.3%.
In the case of `COC(=O)[C@@H]1C(c2c(OC)cc(OC)cc2OC)=NO[C@H]1C(=O)OC`, the “hERG current change (%, negative = inhibition) at 10uM” value is reported as 12.3%.
In the case of `Cc1nnc(SCC(=O)N(C(C)C)C(C)C)[nH]c1=O`, the “hERG current change (%, negative = inhibition) at 10uM” value is reported as 6.59%.
For `Cl.O=C(OCCN1CCOCC1)c1ccc2c(c1)OCCO2`, the “hERG current change (%, negative = inhibition) at 10uM” value was 3.89%.
For `NC(=O)CC[C@@H]1NC(=O)[C@H](CO)NC(=O)c2cc([N+](=O)[O-])cc(I)c2NCCCC[C@@H](C(N)=O)NC(=O)[C@H](Cc2ccc(O)cc2)NC1=O`, the “hERG current change (%, negative = inhibition) at 10uM” value was 15.5%.
For `CCOC(=O)c1c(NC(=O)c2cccs2)sc2c1CCN(C(=O)OCC)C2`, the “hERG current change (%, negative = inhibition) at 10uM” value was -14.1%.
With `Cn1c2ccc(F)cc2c2ncn(CCCN(CCO)CCO)c(=O)c21` the “hERG current change (%, negative = inhibition) at 10uM” value was -40.2%.
For `CCOC(=O)C/C(C)=N\Nc1ccc([N+](=O)[O-])cc1[N+](=O)[O-]`, the “hERG current change (%, negative = inhibition) at 10uM” value was -40.2%.
With `Cc1ccc(C)c(NC(=O)NC2CCCCCCC2)c1` the “hERG current change (%, negative = inhibition) at 10uM” value was -3.25%.
In the case of `CC(=O)Nc1ccc(N2CCc3c(C)c(C#N)c4nc5ccccc5n4c32)cc1`, the “hERG current change (%, negative = inhibition) at 10uM” value is reported as 8.55%.
For `O=C(NCCN1CCCCCC1)C1CCCN1S(=O)(=O)c1cccc2nsnc12` (stereo not shown), the “hERG current change (%, negative = inhibition) at 10uM” value was -5.79%.
`CCc1cc2cc(C(=O)N3CCN(c4ccccc4)CC3)sc2s1` was tested, and the “hERG current change (%, negative = inhibition) at 10uM” value was 10.6%.
For `CC(C)c1ccc(CN(C)C(=O)c2ccc(S(=O)(=O)NCc3ccco3)cc2)cc1`, the “hERG current change (%, negative = inhibition) at 10uM” value was -33.7%.
In the case of `CCC(=O)NNc1ncnc2ccccc12`, the “hERG current change (%, negative = inhibition) at 10uM” value is reported as 9.38%.
`CCn1cc(C2=NCC(C)O2)c2ccccc21` (stereo not shown) was tested, and the “hERG current change (%, negative = inhibition) at 10uM” value was 3.98%.
`COC(=O)CSc1ccc(S(=O)(=O)N2CCOCC2)cc1[N+](=O)[O-]` was tested, and the “hERG current change (%, negative = inhibition) at 10uM” value was -0.557%.
`CCNC(=O)Nc1ccccc1C(=O)OC` was tested, and the “hERG current change (%, negative = inhibition) at 10uM” value was 12.1%.
For `O=C(CSC1CCCCC1)N1CCN(c2ccccc2)CC1`, the “hERG current change (%, negative = inhibition) at 10uM” value was -7.87%.
For `O=C(COC(=O)CN1C(=O)C(=O)c2ccccc21)OCN1C(=O)c2ccccc2C1=O`, the “hERG current change (%, negative = inhibition) at 10uM” value was -9.43%.
For `Cc1cc(C)c(OCC(=O)Nc2ccc(S(=O)(=O)N3CCCC3)cc2)c(C)c1`, the “hERG current change (%, negative = inhibition) at 10uM” value was -23.6%.
For `O=C(Cc1ccccc1)NC(=S)Nc1ccc2oc(-c3ccccc3)nc2c1`, the “hERG current change (%, negative = inhibition) at 10uM” value was 10.5%.
`CCOC(=O)CNC(=O)CSc1nc2cccnc2n1C1CCCCC1` was tested, and the “hERG current change (%, negative = inhibition) at 10uM” value was 5.85%.
In the case of `CC(Oc1ccccc1F)c1ccnc2nc(/N=C/N(C)C)nn12` (stereo not shown), the “hERG current change (%, negative = inhibition) at 10uM” value is reported as 9.9%.
`O=[N+]([O-])c1ccc(C2=Nn3c(Cn4nnc5ccccc54)nnc3SC2)cc1` was tested, and the “hERG current change (%, negative = inhibition) at 10uM” value was -21.1%.
For `COc1ccc(OCC(=O)Nc2ccc(N3CCC(C)CC3)cc2)cc1`, the “hERG current change (%, negative = inhibition) at 10uM” value was 12%.
In the case of `CCC(=O)Nc1ccc(Cl)c(-c2nc3ncccc3o2)c1`, the “hERG current change (%, negative = inhibition) at 10uM” value is reported as -11%.
With `O=C(O)CCn1cc(/C=C2\NC(=S)N(c3ccccc3)C2=O)c(-c2ccc(Br)cc2)n1` the “hERG current change (%, negative = inhibition) at 10uM” value was 30.1%.
`CC(C)Nc1ncnc2c1nnn2Cc1ccccc1` was tested, and the “hERG current change (%, negative = inhibition) at 10uM” value was -2.54%.
In the case of `Cc1cc(=O)oc2cc(OCC(=O)NCCN3CCOCC3)ccc12`, the “hERG current change (%, negative = inhibition) at 10uM” value is reported as 18.9%.
With `Cc1cccc(C)c1NC(=O)CNC(=O)c1cn(-c2ccccc2)nc1-c1ccccc1` the “hERG current change (%, negative = inhibition) at 10uM” value was 6.88%.
For `CC12CCC(C(=O)NCc3ccco3)(OC1=O)C2(C)C` (stereo not shown), the “hERG current change (%, negative = inhibition) at 10uM” value was 2.02%.
For `CCc1ccc(NC(=O)CSc2nnc(CC)c(CC)n2)cc1`, the “hERG current change (%, negative = inhibition) at 10uM” value was -19.5%.

— article PMC4336329 (PLoS ONE, 2015)
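Also: peak tail current of the secondary pulse compared with the same well before compound.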
